# Measurements taken from PubChem BioAssay AID504332 (National Center for Advancing Translational Sciences (NCATS), 2011).
# Out of some 350,000 compounds screened, about 31,000 (8.9%) were called active. The inconclusive results got no clear call from the source; some entries with a clear call stand among them for comparison. The call rests on the fitted dose curve; in most records, active means well fitted inhibition curve with a large enough effect; inconclusive means small, poorly fitted or top-dose-only effect; inactive means no such curve, though single readings can be large or run the other way. Potencies beside an inconclusive call are fits to weak or partial responses and may not hold up. More than one record can exist for a structure, and the calls need not agree.
# Molecular target: Histone-lysine N-methyltransferase EHMT2 (Homo sapiens) (UniProt Q96KQ7)
# Assay: qHTS Assay for Inhibitors of Histone Lysine Methyltransferase G9a; further: nearly all actives have a fitted effect of over 75% in size
# Conditions: G9a H3K9 monomethylation, AlphaScreen, 2 h; activity, negative = inhibition: at 59 µM (top of the series) unless noted
# Method in brief: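 Step 1: enzyme (final 20 nM) with compound, 15 min RT. Step 2: substrate peptide 500 nM and SAM 20 uM, 2 h RT. Step 3: anti-H3K9me1 antibody and AlphaScreen beads, 10 min, then plate read.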
# On the % scale 0 is the no-effect control and ±100 the full control effect; potency means the concentration at half of the fitted maximal effect; tags describe the fitted curve by direction and shape.
# UniProt Q96KQ7, sequence (Q96KQ7 whole entry, looked up): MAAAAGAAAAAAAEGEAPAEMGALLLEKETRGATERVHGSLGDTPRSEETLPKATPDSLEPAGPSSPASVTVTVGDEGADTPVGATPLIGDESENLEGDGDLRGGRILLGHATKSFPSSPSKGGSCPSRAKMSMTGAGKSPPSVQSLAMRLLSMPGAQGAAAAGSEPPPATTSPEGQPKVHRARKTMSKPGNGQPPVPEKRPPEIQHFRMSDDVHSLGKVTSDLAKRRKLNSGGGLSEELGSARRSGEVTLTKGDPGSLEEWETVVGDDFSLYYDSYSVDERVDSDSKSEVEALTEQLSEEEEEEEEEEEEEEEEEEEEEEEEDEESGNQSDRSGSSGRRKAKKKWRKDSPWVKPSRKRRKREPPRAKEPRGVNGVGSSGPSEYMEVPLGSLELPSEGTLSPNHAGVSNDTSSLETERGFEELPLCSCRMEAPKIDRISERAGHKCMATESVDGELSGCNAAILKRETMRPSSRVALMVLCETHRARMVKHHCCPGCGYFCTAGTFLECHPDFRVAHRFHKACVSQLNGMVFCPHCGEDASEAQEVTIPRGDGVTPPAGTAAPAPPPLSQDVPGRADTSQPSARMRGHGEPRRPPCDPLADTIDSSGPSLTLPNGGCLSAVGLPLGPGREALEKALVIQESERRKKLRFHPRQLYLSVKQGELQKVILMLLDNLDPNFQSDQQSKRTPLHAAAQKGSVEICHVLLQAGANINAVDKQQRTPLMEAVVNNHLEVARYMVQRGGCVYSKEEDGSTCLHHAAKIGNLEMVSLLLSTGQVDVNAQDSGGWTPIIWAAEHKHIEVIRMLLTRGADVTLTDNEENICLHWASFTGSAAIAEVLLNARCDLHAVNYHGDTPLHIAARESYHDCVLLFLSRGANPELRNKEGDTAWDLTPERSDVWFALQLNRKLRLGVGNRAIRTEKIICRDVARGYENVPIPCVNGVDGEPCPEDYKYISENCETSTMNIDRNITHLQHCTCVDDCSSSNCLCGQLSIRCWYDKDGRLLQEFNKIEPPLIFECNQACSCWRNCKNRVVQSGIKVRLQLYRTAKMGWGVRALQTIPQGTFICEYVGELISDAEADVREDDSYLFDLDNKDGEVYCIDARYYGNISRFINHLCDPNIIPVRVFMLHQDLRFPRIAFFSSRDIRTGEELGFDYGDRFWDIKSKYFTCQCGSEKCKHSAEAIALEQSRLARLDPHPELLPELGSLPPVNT
Compound,Potency,"activity, negative = inhibition"
CN1CCN(CCC(=O)N/N=C/c2cc([N+](=O)[O-])ccc2O)CC1,"inconclusive: 35.5 µM [inhibitor, single point]",–
Cc1ccc(C(=O)NC(=S)Nc2ccccc2N2CCOCC2)cc1C,active: 22.4 µM,–
CN(C)c1ccc(-c2noc(C3CCN(S(=O)(=O)c4cccc(Cl)c4)CC3)n2)cc1,–,inconclusive: -59.3% [inhibitor]
O=S(=O)(c1cnccc1N1CCN(/N=C/c2ccc(Br)cc2)CC1)N1CCCCC1,"inconclusive: 25.1 µM [inhibitor, partial curve, poor fit]",–
O=[N+]([O-])c1cccc(-c2nnc(-c3ccccc3F)o2)c1,inactive,–
COc1cc2c(C(=O)N3CCN(c4ccccc4C)CC3)c(C)oc2cc1Br,"inconclusive: 89.1 µM [inhibitor, single point]",–
COC(=O)c1cc(NS(=O)(=O)c2ccc(N3CCC(C)CC3)c([N+](=O)[O-])c2)cc(C(=O)OC)c1,"inconclusive: 25.1 µM [inhibitor, single point]",–
Cc1ccsc1CN(Cc1ccco1)c1cnc(S(C)(=O)=O)nc1C(=O)Nc1ccc(Cl)cc1,inactive,–
CC(=O)c1ccc(NC(=O)N2CCN(c3ccc(C)cc3)C(C)C2)cc1 (stereo not drawn),"inconclusive: 44.7 µM [inhibitor, partial curve]",–
Cc1ccc2c(c1)NC(=O)C(CC(=O)N(C)Cc1ccccc1)O2 (stereo not drawn),active: 50.1 µM,–
Cc1cc(C)c2nc(N3CCCN(C(=O)c4ccco4)CC3)c(C#N)cc2c1,"inconclusive: 2.51 µM [inhibitor, full curve, poor fit]",–
O=C(N=c1ccn(-c2nc3ccccc3nc2NS(=O)(=O)c2ccccc2)cc1)c1cccs1,inactive,–
COc1cccc(C2C3=C(N=c4s/c(=C\c5ccc(OCC(=O)O)cc5)c(=O)n42)c2ccccc2CC3)c1 (stereo not drawn),active: 20 µM,–
Cc1cccc2cc3c(N)c(C#N)sc3nc12,active: 7.94 µM,–
O=[N+]([O-])c1nn(-c2ccc(Cl)cc2)n(O)c1=NCc1ccccc1,"inconclusive: 31.6 µM [inhibitor, single point]",–
CC12CCC(O)CC1=CCC1C2CCC2(C)C1CCC21CCC(=O)O1 (stereo not drawn),inactive,–
CC(=O)C1=C(O)C(=O)N(c2ccc(S(=O)(=O)Nc3nccs3)cc2)C1c1ccc(F)cc1 (stereo not drawn),active: 56.2 µM,–
CCCS(=O)(=O)N1CCC(C(=O)NC2CCCC(C)C2C)CC1 (stereo not drawn),"inconclusive: 3.55 µM [inhibitor, single point]",–
COc1ccc(Cc2nc3ccccc3n2CC(=O)N/N=C/c2ccc(C)cc2O)cc1OC,"inconclusive: 5.62 µM [inhibitor, full curve, poor fit]",–
Cc1c[nH]c2cccc(OCC(CNC(C)(C)C)OC(=O)c3ccccc3)c12 (stereo not drawn),"inconclusive: 89.1 µM [inhibitor, single point]",–
O=S(=O)(NCc1cccnc1)c1cccc2nsnc12,active: 31.6 µM,–
CC(=O)c1cccc(NC(=O)CN2C(=S)NC(C)(C)CC2C)c1 (stereo not drawn),active: 31.6 µM,–
CCOC(=O)C1=C(c2ccccc2)OC(N)=C(C#N)C1c1cccs1 (stereo not drawn),"inconclusive: 63.1 µM [inhibitor, partial curve, poor fit]",–

Compound,Potency,"activity, negative = inhibition"
COc1ccc(CC(=O)Nc2nccs2)cc1OC,"inconclusive: 89.1 µM [inhibitor, single point]",–
CCN(CC)CCn1nc(C)nc1-c1ccccc1O,–,inconclusive: -94.7% [inhibitor]
CC(=O)N1CCC2(CC1)C(C#N)=C(N)Oc1c2sc2nc(C)cc(C)c12,active: 11.2 µM,–
O=C(COC(=O)c1ccc(Cl)nc1)Nc1ccc2ccccc2c1,"inconclusive: 56.2 µM [inhibitor, partial curve]",–
CCCC(=O)Nc1sc2c(c1C#N)CCCCC2,inactive,–
CC1CCN(C(=O)CN2CC(C)Sc3ccccc32)CC1 (stereo not drawn),"inconclusive: 31.6 µM [inhibitor, single point]",–
Cc1ccc(NC(=O)N2CC=C(c3c[nH]c4ccccc34)CC2)cc1Cl,"inconclusive: 12.6 µM [inhibitor, partial curve, poor fit]",–
COc1ccc(CCC(C)Nc2ccc(F)cc2)cc1 (stereo not drawn),"inconclusive: 39.8 µM [inhibitor, single point]",–
CCCNC(=O)c1ccc(N2CCC3(CC2)CC(c2cccc(Br)c2)=NO3)c(NC(=O)c2cccc(C)c2)c1,–,inactive: 11.1% [at 2.33 µM]
Cc1oc(-c2cccc(Cl)c2)nc1Cn1c(SCc2ccc(F)cc2)nc2cccnc21,"inconclusive: 8.91 µM [inhibitor, partial curve, poor fit]",–
O=C(NCC1CCCCC1)C1(CC2CC(c3cccc(Br)c3)=NO2)CCNCC1 (stereo not drawn),"inconclusive: 89.1 µM [inhibitor, single point]",–
CCC(Nc1ccc(-c2nc(-c3ccccn3)no2)cc1[N+](=O)[O-])c1ccccc1 (stereo not drawn),inactive,–
O=C(CCNS(=O)(=O)c1ccc2[nH]c(=O)oc2c1)NCc1ccc(F)cc1,"inconclusive: 89.1 µM [inhibitor, single point]",–
O=C(Nc1ccc2c(c1)OCO2)NC1(C(F)(F)F)Oc2ccccc2O1,active: 6.31 µM,–
O=C(COc1ccccc1Cl)c1ccc[nH]1,"inconclusive: 15.8 µM [inhibitor, partial curve, poor fit]",–
COc1ccc(CC(=O)Nc2ccc(S(=O)(=O)N3CCCCC3)cc2)cc1OC,"inconclusive: 50.1 µM [inhibitor, partial curve, poor fit]",–
COc1ccc(NC(=O)n2ncc3c(C)cccc32)cc1OC,"inconclusive: 70.8 µM [inhibitor, partial curve, poor fit]",–
COC(=O)c1ccc(N2C(=O)CC(Sc3n[nH]c(C)n3)C2=O)cc1 (stereo not drawn),active: 2 µM,–
COC(=O)c1[nH]c(C)c(/C(O)=C2\C(=O)C(=O)N(CCN(C)C)C2c2ccco2)c1C (stereo not drawn),"inconclusive: 31.6 µM [inhibitor, single point]",–
O=c1[nH]c(CSc2nc(-c3ccccc3)cs2)nc2ccccc12,"inconclusive: 22.4 µM [inhibitor, partial curve, poor fit]",–
O=C(CN1CCN(C(=S)NC2CCCC2)CC1)Nc1ccc(Oc2ccccc2)cc1,"inconclusive: 56.2 µM [inhibitor, single point]",–
COc1ccc(N/N=C(/N=Nc2nc(C)cc(=O)[nH]2)c2ccccc2)cc1,"inconclusive: 12.6 µM [inhibitor, full curve, poor fit]",–
Cc1ccc(NC(=O)c2cc(NC(=O)C3CC=CCC3C(=O)O)ccc2N2CCOCC2)cc1Cl (stereo not drawn),"inconclusive: 50.1 µM [inhibitor, partial curve, poor fit]",–

Compound,Potency,"activity, negative = inhibition"
CCCCNc1n[n+](C)c(-c2cccc(C)c2)s1,"inconclusive: 3.98 µM [inhibitor, single point]",–
CCN(CC)CCOc1ccccc1OC,active: 22.4 µM,–
O=C(CCCCCn1c(=O)c2sccc2n(CC(=O)Nc2ccccc2F)c1=O)NCc1ccc2c(c1)OCO2,inactive,–
COC(=O)c1ccc(C2N=C(c3cccs3)CC(c3ccccc3O)N2)cc1 (stereo not drawn),active: 44.7 µM,–
O=C(CSc1nc(N2CCCCC2)nc(N2CCCCC2)n1)N1CCN(c2ccccc2)CC1,"inconclusive: 79.4 µM [inhibitor, single point]",–
CCn1c(SCC(=O)OC2CCCCC2)nnc1-c1ccncc1,"inconclusive: 89.1 µM [inhibitor, single point]",–
CCOc1cc(C(=O)NC(=S)Nn2cnnc2)cc(OCC)c1OCC,active: 25.1 µM,–
NC(=O)[C@@H]1CCOc2c(F)cc([N+](=O)[O-])cc2C(=O)N[C@@H](CO)C(=O)NCC(=O)N1,"inconclusive: 79.4 µM [inhibitor, single point]",–
Cc1ccc(/C=N/n2c(C)n[nH]c2=S)o1,"inconclusive: 15.8 µM [inhibitor, partial curve, poor fit]",–
CSc1ncc(Cl)c(C(=O)Nc2nnc(SC/C=C/c3ccccc3)s2)n1,"inconclusive: 1.78 µM [inhibitor, partial curve, poor fit]",–
c1ccc(CC[C@@H]2CC[C@@H](CCc3ccccc3)N2)cc1,–,inactive: -23.9% [at 0.501 µM]
COC(=O)CN1C(=O)CSc2ccc(S(=O)(=O)Nc3ccc(C)c(Cl)c3)cc21,inactive,–
COc1cc(CNc2ccc(NC(C)=O)cc2)ccc1OCc1ccccc1C,active: 39.8 µM,–
Cc1no[n+]([O-])c1COc1ccc(/C=C(\C#N)C(N)=O)cc1,"inconclusive: 28.2 µM [inhibitor, partial curve, poor fit]",–
Cc1ccc(C(=O)N/N=C\c2ccc(OC(=O)c3cccc(F)c3)cc2)cn1,"inconclusive: 2 µM [inhibitor, partial curve, poor fit]",–
COc1ccc(C2c3ccc4ccccc4c3Oc3ncn(CCO)c(=N)c32)cc1OC (stereo not drawn),"inconclusive: 89.1 µM [inhibitor, single point]",–
CC(OC(=O)c1nn(C)c(=O)c2ccccc12)C(=O)Nc1ccc(S(N)(=O)=O)cc1 (stereo not drawn),–,inactive: 1.77% [at 12.7 µM]
CNC(=O)c1cnc2sc(N3CCC(C)CC3)nn2c1=O,inactive,–
CCCCOc1cccc(C2c3c(-c4cc(C)ccc4O)n[nH]c3C(=O)N2CCOC)c1 (stereo not drawn),inactive,–
O=C(Nc1ccccc1C(=O)N1CCCCC1)c1nsc2ccccc12,inactive,–
COc1ccc(NC(=O)c2cccnc2SC)cc1S(=O)(=O)N1CCCCC1,"inconclusive: 89.1 µM [inhibitor, partial curve, poor fit]",–
Cc1ccc2sc(-c3ccc(NC(=O)c4cc(-n5cnnc5)ccc4Cl)cc3)nc2c1,–,inconclusive: -54.7% [inhibitor] [at 12.7 µM]
